# Assay results: PubChem BioAssay (EPA / NIEHS)
# Several values for one entry are separate records, joined by “and”; a condition that tells them apart may be missing. Equal values may be shown once. Inconclusive means that the source gave no clear call. Such entries were picked first, then a sample of the others. Where the call is inconclusive, the potency comes from a doubtful curve fit. Where a structure was tested more than once in an assay, its records may differ in their call. Activity calls are given as the source filed them. Rule for the calls: active = hit-call score of the fitted dose curve at least 0.9, where 1 is the maximum; inconclusive = response in the unintended direction; inactive = score below 0.9.
# System: chicken Androgen Receptor (AR), gene 422165
# Experiment: ATG_chAR_XSP2: Attagene TRANS-FACTORIAL Multi-Species (XSP2) HepG2 Assay for chicken Androgen Receptor (AR) (AID 2283819);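 note: hits raise reporter mRNA above DMSO so potency is for activation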
# Description: ATG_XSP2_multi-species_TRANS is a cell-based, multiplexed assay created by modifying the existing Attagene TRANS-FACTORIAL system to include a panel of nuclear receptors from some or all the following species: human (Homo sapiens), mouse (Mus musculus), frog (Xenopus laevis), zebrafish (Danio rerio), chicken (Gallus gallus), and turtle (Chrysemys picta). The ECOTOX-FACTORIAL format uses HepG2, a human liver cell line, with measurements taken at 24 hours after chemical dosing in a 24-well plate. Xsp2 included 3 nM 6-alpha-fluorotestosterone and 1.5 nM norgestrel to stimulate the androgen receptor.ATG_chAR_XSP2 is one of 29 assay components measured or calculated from the ATG_XSP2_multi-species_TRANS assay. It is designed to make measurements of mRNA induction, a form of inducible reporter, as detected with fluorescence intensity signals by Reverse transcription polymerase chain reaction (RT-PCR) and Capillary electrophoresis technology.The assay endpoint ATG_chAR_XSP2 was analyzed in the positive analysis fitting direction relative to DMSO as the negative control and baseline of activity. Using a type of inducible reporter, measures of mRNA for gain-of-signal activity can be used to understand the reporter gene at the transcription factor-level as they relate to the gene AR. Furthermore, this assay endpoint can be referred to as a primary readout, because this assay has produced multiple assay endpoints where this one serves a reporter gene function. To generalize the intended target to other relatable targets, this assay endpoint is annotated to the nuclear receptor intended target family, where the subfamily is steroidal.
# Human liver HepG2 cells are transiently transfected with multiple reporter transcription units (MRTUs) in 6-well plates using FuGene 6 reagent (Roche; 3 ml FuGene/1 mg DNA). The MRTU constructs are regulated by a cis-regulating element (promoter). […] A major difference between the CIS and TRANS system is that in CIS activities of endogenous TFs are measured, whereas the TRANS assay evaluates changes in activities of exogenous, chimeric NR-Gal4 proteins. […] At the end of 24 hour incubation, total RNA was isolated using TriZol reagent (Invitrogen). The isolated RNA is then reverse-transcribed using oligo(dT) primer and Mo-MLV reverse transcriptase (Invitrogen) with DNAse I (Ambion) treatment for 30 min. The one-tenth of the produced cDNA was amplified by PCR using Taq DNA polymerase (Invitrogen) and two reporter sequence-specific primers. The PCR products were fluorescently labeled by primer extension with 6-arboxyfluorescein (6-FAM) 5'-labeled reporter sequence-specific primer (2 min at 95 C, 20 s at 68 C and 10 min at 72 C) and these products were digested with 5U of HpaI (New England Biolabs) for 2h at 37 C. The fragments were purified using Qiaquick PCR columns (Qiagen), analyzed on an ABI 3130xL genetic analyzer (Applied Biosystems) with peak positions identified by using a set of X-rhodamine (ROX)-labeled MapMarker1000 molecular weight standards (BioVentures). The raw capillary electrophoresis data was processed using Attagraph software (Attagene).
Structure (SMILES),outcome,AC50
Oc1ccc(C(c2ccc(O)cc2)(C(F)(F)F)C(F)(F)F)cc1,inactive,inconclusive: 56.6 µM
CCCCc1ccc(O)cc1,,inconclusive: 43.1 µM and inconclusive: 41.8 µM
CC12CC1(C)C(=O)N(c1cc(Cl)cc(Cl)c1)C2=O (stereo not given),,inconclusive: 6.84 µM and inconclusive: 9.11 µM
CC(c1ccc(O)cc1)(c1ccc(O)cc1)c1ccc(O)cc1,inactive,active: 0.314 µM
O=C1C2(Cl)C3(Cl)C4(Cl)C(Cl)(Cl)C5(Cl)C3(Cl)C1(Cl)C5(Cl)C24Cl (stereo not given),,inconclusive: 10 µM
C[C@H]1CCCC(=O)CCC/C=C/c2cc(O)cc(O)c2C(=O)O1,inactive,inconclusive: 0.1 µM
COP(=S)(OC)SCn1nnc2ccccc2c1=O,,inconclusive: 89.4 µM and inconclusive: 125 µM
COP(=O)(OC)O/C(=C\Cl)c1cc(Cl)c(Cl)cc1Cl,,inconclusive: 100 µM
CCC(=O)O[C@H]1CC[C@H]2[C@@H]3CCC4=CC(=O)CC[C@]4(C)[C@H]3CC[C@]12C,inactive,active: 0.0247 µM
C=CC1(C)OC(=O)N(c2cc(Cl)cc(Cl)c2)C1=O (stereo not given),,inconclusive: 1 µM
CCC(C)(C)c1ccc(O)cc1,inactive,inconclusive: 11.2 µM
CCCCCOC(=O)c1ccccc1C(=O)OCCCCC,,inconclusive: 180 µM
CO/C=C(/C(=O)OC)c1ccccc1Oc1cc(Oc2ccccc2C#N)ncn1,,inconclusive: 1 µM
C[C@]12CCC(=O)C=C1CC[C@@H]1[C@@H]2CC[C@@]2(C)[C@H]1CC[C@]2(C)O,,active: 0.000725 µM
CC(C)Oc1cc(-n2nc(C(C)(C)C)oc2=O)c(Cl)cc1Cl,inactive,
O=[N+]([O-])c1ccc(Oc2ccc(Cl)cc2Cl)cc1,,inconclusive: 7.41 µM and inconclusive: 6.37 µM
COP(=S)(OC)Oc1ccc([N+](=O)[O-])cc1,,inconclusive: 167 µM and inconclusive: 27.3 µM

Structure (SMILES),outcome,AC50
CC(C)(C)C(O)/C(=C\c1ccc(Cl)cc1Cl)n1cncn1 (stereo not given),,inconclusive: 8.65 µM and inconclusive: 26.2 µM
Cc1cc(-c2ccc(N)c(C)c2)ccc1N,,inconclusive: 33.7 µM and inconclusive: 56.6 µM and inconclusive: 52.9 µM
C[C@]12CC[C@H](O)CC1=CC[C@@H]1[C@@H]2CC[C@]2(C)C(=O)CC[C@@H]12,,inconclusive: 100 µM and inconclusive: 19.8 µM
CCC[CH2][Sn]([Cl])([CH2]CCC)[CH2]CCC,,inconclusive: 1.51 µM
CC(C)(C)c1ccc(O)cc1,,inconclusive: 100 µM and inconclusive: 175 µM
COP(=S)(OC)Oc1ccc(SC)c(C)c1,,inconclusive: 100 µM
CCCCOC(=O)c1ccccc1C(=O)OCCCC,inactive,
Oc1ccc2ccc3cccc4ccc1c2c34,inactive,inconclusive: 59.6 µM
CC1(C)CCC(=Cc2ccc(Cl)cc2)C1(O)Cn1cncn1 (stereo not given),,inconclusive: 34.3 µM
CCC(CC)Nc1c([N+](=O)[O-])cc(C)c(C)c1[N+](=O)[O-],,inconclusive: 4.73 µM and inconclusive: 8.41 µM
CC(=O)c1cc2c(cc1C)C(C)(C)C(C)CC2(C)C (stereo not given),,inconclusive: 23.9 µM
CCOCN(C(=O)CCl)c1c(C)cccc1CC,,inconclusive: 173 µM
CC(C)(C)C(O)(CCc1ccc(Cl)cc1)Cn1cncn1 (stereo not given),,inconclusive: 43 µM and inconclusive: 75.6 µM
O=S(=O)(c1ccc(O)cc1)c1ccc(O)cc1,inactive,active: 27.1 µM
CC1(C)C(C=C(Cl)Cl)C1C(=O)OC(C#N)c1ccc(F)c(Oc2ccccc2)c1 (stereo not given),inactive,
O=c1oc2ccccc2c(O)c1C(CC(O)c1ccc(-c2ccc(Br)cc2)cc1)c1ccccc1 (stereo not given),inactive,
